# This is one part of the list.
# What was measured:
# Experiment in all cases: glycan array binding signal (z-score within array); higher = stronger binding
# Conditions in all cases: glycan notation: IUPAC condensed, linker removed; mutation: R82H, R255H
# [1] = target: Fuc(a1-3)[Gal3S(b1-4)]GlcNAc
# Summary of the method: (§1)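 From the Consortium for Functional Glycomics database, 3228 arrays were curated, keeping only those whose protein sequence was available. Binding is given as a within-array Z-score averaged across arrays sharing a protein sequence and across linkers. Negative Z-scores can be read as non-binding.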
# [2] = target: Fuc(a1-3)[Gal3S(b1-4)]GlcNAc6S
# Summary of the method: as §1
# [3] = target: Fuc(a1-3)[GalNAc(b1-4)]GlcNAc
# Summary of the method: as §1
# [4] = target: Fuc(a1-3)[GalNAc(b1-4)]GlcNAc6S
# Summary of the method: as §1
# Fuc(a1-4)GlcNAc = target: Fuc(a1-4)GlcNAc
# Summary of the method: as §1
# Fuc(b1-3)GlcNAc = target: Fuc(b1-3)GlcNAc
# Summary of the method: as §1
# Gal(a1-2)Gal = target: Gal(a1-2)Gal
# Summary of the method: as §1
# Gal(a1-3)Gal = target: Gal(a1-3)Gal
# Summary of the method: as §1
# Gal(a1-3)Gal(b1-3)GlcNAc = target: Gal(a1-3)Gal(b1-3)GlcNAc
# Summary of the method: as §1
# [5] = target: Gal(a1-3)Gal(b1-3)GlcNAc(b1-2)Man
# Summary of the method: as §1
# [6] = target: Gal(a1-3)Gal(b1-3)GlcNAc(b1-2)Man(a1-3)[Gal(a1-3)Gal(b1-3)GlcNAc(b1-2)Man(a1-6)]Man(b1-4)GlcNAc(b1-4)GlcNAc
# Summary of the method: as §1
# [7] = target: Gal(a1-3)Gal(b1-3)GlcNAc(b1-3)GalNAc
# Summary of the method: as §1
# [8] = target: Gal(a1-3)Gal(b1-3)GlcNAc(b1-6)GalNAc
# Summary of the method: as §1
# [9] = target: Gal(a1-3)Gal(b1-3)[Fuc(a1-4)]GlcNAc(b1-2)Man(a1-3)[Gal(a1-3)Gal(b1-3)[Fuc(a1-4)]GlcNAc(b1-2)Man(a1-6)]Man(b1-4)GlcNAc(b1-4)GlcNAc
# Summary of the method: as §1
# Gal(a1-3)Gal(b1-4)Glc = target: Gal(a1-3)Gal(b1-4)Glc
# Summary of the method: as §1
# Gal(a1-3)Gal(b1-4)GlcNAc = target: Gal(a1-3)Gal(b1-4)GlcNAc
# Summary of the method: as §1
# [10] = target: Gal(a1-3)Gal(b1-4)GlcNAc(b1-2)Man
# Summary of the method: as §1
# [11] = target: Gal(a1-3)Gal(b1-4)GlcNAc(b1-2)Man(a1-3)[Gal(a1-3)Gal(b1-4)GlcNAc(b1-2)Man(a1-6)]Man(b1-4)GlcNAc(b1-4)GlcNAc
# Summary of the method: as §1
# [12] = target: Gal(a1-3)Gal(b1-4)GlcNAc(b1-3)GalNAc
# Summary of the method: as §1
# [13] = target: Gal(a1-3)Gal(b1-4)GlcNAc(b1-6)GalNAc
# Summary of the method: as §1
# [14] = target: Gal(a1-3)Gal(b1-4)[Fuc(a1-3)]GlcNAc
# Summary of the method: as §1
# [15] = target: Gal(a1-3)Gal(b1-4)[Fuc(a1-3)]GlcNAc(b1-2)Man(a1-3)[Gal(a1-3)Gal(b1-4)[Fuc(a1-3)]GlcNAc(b1-2)Man(a1-6)]Man(b1-4)GlcNAc(b1-4)GlcNAc
# Summary of the method: as §1
# Gal(a1-3)GalNAc = target: Gal(a1-3)GalNAc
# Summary of the method: as §1
# [16] = target: Gal(a1-3)[Gal(a1-4)]Gal(b1-4)GlcNAc
# Summary of the method: as §1
# [17] = target: Gal(a1-4)Gal(b1-3)GlcNAc(b1-2)Man(a1-3)[Gal(a1-4)Gal(b1-3)GlcNAc(b1-2)Man(a1-6)]Man(b1-4)GlcNAc(b1-4)GlcNAc
# Summary of the method: as §1
# Gal(a1-4)Gal(b1-4)Glc = target: Gal(a1-4)Gal(b1-4)Glc
# Summary of the method: as §1
# Gal(a1-4)Gal(b1-4)GlcNAc = target: Gal(a1-4)Gal(b1-4)GlcNAc
# Summary of the method: as §1
# [18] = target: Gal(a1-4)Gal(b1-4)GlcNAc(b1-2)Man(a1-3)[Gal(a1-4)Gal(b1-4)GlcNAc(b1-2)Man(a1-6)]Man(b1-4)GlcNAc(b1-4)GlcNAc
# Summary of the method: as §1
# [19] = target: Gal(a1-4)Gal(b1-4)GlcNAc(b1-3)Gal(b1-4)Glc
# Summary of the method: as §1
# Gal(a1-4)GlcNAc = target: Gal(a1-4)GlcNAc
# Summary of the method: as §1
# Gal(a1-6)Glc = target: Gal(a1-6)Glc
# Summary of the method: as §1
# Gal(b1-2)Gal = target: Gal(b1-2)Gal
# Summary of the method: as §1
# Gal(b1-3)Gal = target: Gal(b1-3)Gal
# Summary of the method: as §1
# Gal(b1-3)Gal(b1-4)GlcNAc = target: Gal(b1-3)Gal(b1-4)GlcNAc
# Summary of the method: as §1
# Gal(b1-3)GalNAc = target: Gal(b1-3)GalNAc
# Summary of the method: as §1
# [20] = target: Gal(b1-3)GalNAc(a1-3)[Fuc(a1-2)]Gal(b1-4)Glc
# Summary of the method: as §1
# [21] = target: Gal(b1-3)GalNAc(a1-3)[Fuc(a1-2)]Gal(b1-4)GlcNAc
# Summary of the method: as §1
# Gal(b1-3)GalNAc(b1-3)Gal = target: Gal(b1-3)GalNAc(b1-3)Gal
# Summary of the method: as §1
# [22] = target: Gal(b1-3)GalNAc(b1-3)Gal(a1-4)Gal(b1-4)Glc
# Summary of the method: as §1
# [23] = target: Gal(b1-3)GalNAc(b1-4)Gal(b1-4)Glc
# Summary of the method: as §1
# [24] = target: Gal(b1-3)GalNAc(b1-4)[Neu5Ac(a2-3)]Gal(b1-4)Glc
# Summary of the method: as §1
# Gal(b1-3)GlcNAc = target: Gal(b1-3)GlcNAc
# Summary of the method: as §1
# [25] = target: Gal(b1-3)GlcNAc(a1-3)Gal(b1-4)GlcNAc
# Summary of the method: as §1
# [26] = target: Gal(b1-3)GlcNAc(a1-6)Gal(b1-4)GlcNAc
# Summary of the method: as §1
# Gal(b1-3)GlcNAc(b1-2)Man = target: Gal(b1-3)GlcNAc(b1-2)Man
# Summary of the method: as §1
binder,measurement,setting,value
"Gal 8 (Mus musculus), Q9JL15 (protein) MGGSHHHHHHGMASMLSLNNLQNIIYNPIIPYVGTITEQLKPGSLIVIRGHVPKDSERFQVDFQLGNSLKPRADVAFHFNPHFKRSSCIVCNTLTQEKWGWEEITYDMPFRKEKSFEIVFMVLKNKFQVAVNGRHVLLYAHRISPEQIDTVGIYGKVNIHSIGFRFSSASALPHTLGDLQSMETSALGLTQINRENIQKPGKLQLSLPFEARLNASMGPGRTVVIKGEVNTNARSFNVDLVAGKTRDIALHLNPHLNVKAFVRNSFLQDAWGEEERNITCFPFSSGMYFEMIIYCDVREFKVAINGVHSLEYKHRFKDLSSIDTLSVDGDIRLLDVRSW",glycan array binding signal (z-score),[1],-0.224
same,glycan array binding signal (z-score),[2],-0.222
same,glycan array binding signal (z-score),[3],-0.253
same,glycan array binding signal (z-score),[4],-0.25
same,glycan array binding signal (z-score),Fuc(a1-4)GlcNAc,0.01
same,glycan array binding signal (z-score),Fuc(b1-3)GlcNAc,-0.067
same,glycan array binding signal (z-score),Gal(a1-2)Gal,-0.153
same,glycan array binding signal (z-score),Gal(a1-3)Gal,-0.211
same,glycan array binding signal (z-score),Gal(a1-3)Gal(b1-3)GlcNAc,-0.019
same,glycan array binding signal (z-score),[5],-0.263
same,glycan array binding signal (z-score),[6],-0.239
same,glycan array binding signal (z-score),[7],-0.292
same,glycan array binding signal (z-score),[8],-0.262
same,glycan array binding signal (z-score),[9],-0.18
same,glycan array binding signal (z-score),Gal(a1-3)Gal(b1-4)Glc,-0.236
same,glycan array binding signal (z-score),Gal(a1-3)Gal(b1-4)GlcNAc,-0.274
same,glycan array binding signal (z-score),[10],-0.172
same,glycan array binding signal (z-score),[11],-0.037
same,glycan array binding signal (z-score),[12],-0.196
same,glycan array binding signal (z-score),[13],-0.243
same,glycan array binding signal (z-score),[14],-0.27
same,glycan array binding signal (z-score),[15],0.181
same,glycan array binding signal (z-score),Gal(a1-3)GalNAc,-0.229
same,glycan array binding signal (z-score),[16],-0.236
same,glycan array binding signal (z-score),[17],-0.11
same,glycan array binding signal (z-score),Gal(a1-4)Gal(b1-4)Glc,-0.18
same,glycan array binding signal (z-score),Gal(a1-4)Gal(b1-4)GlcNAc,-0.256
same,glycan array binding signal (z-score),[18],-0.229
same,glycan array binding signal (z-score),[19],-0.123
same,glycan array binding signal (z-score),Gal(a1-4)GlcNAc,-0.228
same,glycan array binding signal (z-score),Gal(a1-6)Glc,-0.238
same,glycan array binding signal (z-score),Gal(b1-2)Gal,-0.193
same,glycan array binding signal (z-score),Gal(b1-3)Gal,-0.21
same,glycan array binding signal (z-score),Gal(b1-3)Gal(b1-4)GlcNAc,-0.243
same,glycan array binding signal (z-score),Gal(b1-3)GalNAc,-0.251
same,glycan array binding signal (z-score),[20],-0.239
same,glycan array binding signal (z-score),[21],-0.16
same,glycan array binding signal (z-score),Gal(b1-3)GalNAc(b1-3)Gal,-0.265
same,glycan array binding signal (z-score),[22],-0.235
same,glycan array binding signal (z-score),[23],-0.226
same,glycan array binding signal (z-score),[24],-0.26
same,glycan array binding signal (z-score),Gal(b1-3)GlcNAc,-0.27
same,glycan array binding signal (z-score),[25],-0.269
same,glycan array binding signal (z-score),[26],-0.273
same,glycan array binding signal (z-score),Gal(b1-3)GlcNAc(b1-2)Man,-0.136

# Source: the supplement of paper PMC8728848
